The text below walks through data of patent US20260109773A1 (HARPOON THERAPEUTICS, published 2026).

The assay deals with T1, 02B05 TriTAC.
T1 construct: TriTAC trispecific; His6 in entry; also called exemplary BCMA targeting trispecific protein (02B05)
The experiment in a line: Octet; 50 nM mouse serum albumin on streptavidin tips; n=1. As to the method: The affinities were measured using an Octet instrument. For these measurements, streptavidin tips were first loaded with 2.5 nM human BCMA-Fc, 2.5 nM cynomolgous BCMA-Fc, 2.5 nM human CD3ε-Fc, 2.5 nM cynomolgus CD3ε-Fc, 50 nM human serum albumin (HSA), 50 nM cynomolgus serum albumin, or 50 nM mouse serum albumin. […] Average calculated KD values from these studies are provided in Table 4 (n indicates the number of independent measurements, n/d indicates no binding detected under the conditions tested).

T1 sequence (chain, as listed by the source): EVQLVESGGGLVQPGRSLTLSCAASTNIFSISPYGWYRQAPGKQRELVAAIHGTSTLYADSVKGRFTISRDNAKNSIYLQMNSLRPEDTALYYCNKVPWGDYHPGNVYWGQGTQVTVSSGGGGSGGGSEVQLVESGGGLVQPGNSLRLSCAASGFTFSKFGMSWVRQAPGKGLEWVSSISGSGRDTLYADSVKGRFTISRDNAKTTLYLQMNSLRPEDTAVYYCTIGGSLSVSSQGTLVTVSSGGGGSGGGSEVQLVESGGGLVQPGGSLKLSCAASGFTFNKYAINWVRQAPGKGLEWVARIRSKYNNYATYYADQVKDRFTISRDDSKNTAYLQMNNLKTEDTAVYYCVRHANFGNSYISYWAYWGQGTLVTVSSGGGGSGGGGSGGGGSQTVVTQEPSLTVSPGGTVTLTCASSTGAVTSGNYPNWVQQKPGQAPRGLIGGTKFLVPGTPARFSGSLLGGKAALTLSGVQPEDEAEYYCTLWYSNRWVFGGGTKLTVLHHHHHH

B1: mouse serum albumin (other)
chain: not shown
notes: loaded on streptavidin tips
The term Kd denotes a measure of binding affinity in units of concentration. B1 came in with a Kd of 76 nM.
